# Assay results reported in PubChem BioAssay AID485281 (National Center for Advancing Translational Sciences (NCATS), 2010).
# Among all 350,000 compounds or so, about 260 (0.074%) were called active. The inconclusive results got no clear call from the source; some entries with a clear call stand among them for comparison. The call rests on the fitted dose curve; in most records, active means well fitted inhibition curve with a large enough effect; inconclusive means small, poorly fitted or top-dose-only effect; inactive means no such curve, though single readings can be large or run the other way. Potencies of inconclusive entries are doubtful fits and often do not repeat.
# Biological target: Ferritin light chain (Equus caballus) (UniProt P02791)
# Chain of UniProt P02791 (P02791 whole entry, looked up): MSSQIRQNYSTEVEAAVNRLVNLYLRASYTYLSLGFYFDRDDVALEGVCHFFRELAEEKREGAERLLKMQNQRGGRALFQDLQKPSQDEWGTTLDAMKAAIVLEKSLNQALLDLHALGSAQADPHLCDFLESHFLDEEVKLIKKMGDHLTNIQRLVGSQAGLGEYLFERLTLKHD
# Experiment: qHTS Assay for Identification of Novel General Anesthetics; further: nearly all actives have a fitted effect of over 20% in size
# Settings: apoferritin/1-aminoanthracene competitive binding, fluorescence; series mostly up to 77.5 µM
# How it was run: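 Steps: apoferritin (10 uM) was premixed with half-saturated 1-AMA in PBS, compounds were pin-transferred, plates stood 10 min at room temperature, fluorescence was read at 380/535 nm, and curves were fitted with a Hill equation.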
# Potency means the concentration at half of the fitted maximal effect; tags describe the fitted curve by direction and shape.
row,SMILES,Potency
1,O=C1N(Cc2cccc(Cl)c2)C[C@@H]2C[C@@H](c3cccn3-c3ccccn3)N3CCC[C@@]123,"inconclusive: 39.8 µM [inhibitor, single point]"
2,CC1CCC2C(=O)N(c3cccc(C(=O)Nc4ccccc4Cl)c3)C(=O)C2C1 (centres undefined),"inconclusive: 22.4 µM [inhibitor, partial curve]"
3,COc1cccc(NC(=O)c2cccc(C)c2[N+](=O)[O-])c1,"inconclusive: 39.8 µM [inhibitor, single point]"
4,O=C(c1cc([N+](=O)[O-])ccc1Cl)N1CCN(Cc2ccc3c(c2)OCO3)CC1,inactive
5,Cc1cccc(-c2cc3nc4c(c(NCc5ccco5)n3n2)CCCC4)c1,inactive
6,Cn1ncc([N+](=O)[O-])c1C(=O)Nc1ccc(C2CCCCC2)cc1,"inconclusive: 50.1 µM [inhibitor, single point]"
7,CCOc1ccc(-n2c(SCc3ccc([N+](=O)[O-])cc3)nnc2-c2ccc(OC)cc2)cc1,"inconclusive: 50.1 µM [inhibitor, single point]"
8,O=C(/C=C/c1cccc(F)c1)NC1CCN(Cc2ccccc2)CC1,inactive
9,CC1=C(c2ccc(C)c(C)c2)S(=O)(=O)N=C1N1CCN(c2cccc(C(F)(F)F)c2)CC1,"inconclusive: 3.98 µM [inhibitor, full curve, poor fit]"
10,CCOC(=O)c1ccc(N2C(=O)c3n[nH]c(C)c3C2c2ccc(OC)c(OC)c2)cc1 (centres undefined),"inconclusive: 8.91 µM [inhibitor, partial curve]"
11,CCOC(=O)CN1C(=O)C(O)(CC(=O)c2ccc3c(c2)CCCC3)c2ccccc21 (centres undefined),"inconclusive: 25.1 µM [inhibitor, partial curve]"
12,Cc1cc(-n2c(C)cc(C(=O)CSc3ccc4c(c3)OCCO4)c2C)no1,"inconclusive: 14.1 µM [inhibitor, partial curve]"
13,CC1CCCN(S(=O)(=O)c2ccc(S(=O)(=O)NC(C)c3cccs3)cc2)C1 (centres undefined),"inconclusive: 2.51 µM [inhibitor, full curve]"
14,CCCCCSc1nnc2c(n1)OC(c1ccc(C)s1)N(C(C)=O)c1ccccc1-2 (centres undefined),inactive
15,O=c1[nH]c2c(s1)C(c1ccccc1)C1C3CCC(C3)C1S2 (centres undefined),"inconclusive: 22.4 µM [inhibitor, partial curve]"
16,CCOc1ccc(-c2ccc(NS(=O)(=O)c3cc(C)ccc3OC)cc2)nn1,"inconclusive: 17.8 µM [inhibitor, partial curve]"
17,CSc1nc2ccc(S(=O)(=O)NC3CCCCC3)cc2s1,"inconclusive: 25.1 µM [inhibitor, partial curve]"
18,Cc1c(N=C/C=C/c2ccccc2)c(=O)n(-c2ccccc2)n1C,"inconclusive: 25.1 µM [inhibitor, single point]"
19,CCOC(=O)c1cccc(NC(=O)c2cc3ccccc3o2)c1,"inconclusive: 44.7 µM [inhibitor, single point]"
20,Cc1ccc(C)c(N2CCN(C(=O)Cn3cccc3)CC2)c1,"inconclusive: 31.6 µM [inhibitor, single point]"
21,O=C1c2ccsc2SCCN1Cc1c(F)cccc1Cl,inactive
22,CCN(CC)c1ccc(/C=N/NC(=O)CNC(=O)c2ccccn2)cc1,"inconclusive: 22.4 µM [inhibitor, partial curve]"

row,SMILES,Potency
1,Cc1ccc(Oc2cnc3ccccc3n2)cc1,"inconclusive: 35.5 µM [inhibitor, partial curve]"
2,Cc1ccc(NC(=O)COC(=O)CSC(=S)N2CCOCC2)cc1,"inconclusive: 11.2 µM [inhibitor, partial curve]"
3,Cc1ccc(CCNC(=O)CN2N=C(c3ccc(C)cc3)CCC2=O)cc1,"inconclusive: 11.2 µM [inhibitor, partial curve]"
4,COc1ccc(N2C(=O)CCSC23C(=O)N(Cc2ccc(F)cc2)c2ccccc23)cc1Cl (centres undefined),"inconclusive: 3.55 µM [inhibitor, single point]"
5,Brc1ccccc1C1Nc2cccc3cccc(c23)N1,"inconclusive: 20 µM [inhibitor, partial curve]"
6,O=C(COC(=O)Cn1cnc2ccccc21)NCCc1ccc(Cl)cc1,"inconclusive: 35.5 µM [inhibitor, single point]"
7,CC1CCN(C(=O)c2ccc(NC(=O)c3nsc4ccccc34)cc2)CC1,"inconclusive: 28.2 µM [inhibitor, partial curve]"
8,COc1cc(CC(=O)OCC(=O)Nc2ccc(S(=O)(=O)N3CCCC3)cc2)cc(OC)c1OC,"inconclusive: 12.6 µM [inhibitor, partial curve]"
9,CCc1ccc(N=c2c([N+](=O)[O-])nn(-c3ccccc3)n2O)cc1,inactive
10,CN1CCN(CCc2nc3cc(NC(=O)COc4ccc(Cl)cc4)ccc3n2C)CC1,"inconclusive: 35.5 µM [inhibitor, partial curve]"
11,Cc1ccc(NC(=O)CN2C(=O)C(C)(C)c3cc(S(=O)(=O)N4CCCCC4)ccc32)c(Br)c1,"inconclusive: 3.16 µM [inhibitor, full curve, poor fit]"
12,CC1(C(=O)NC(=S)N(Cc2ccccc2)c2ccccn2)CC1(Cl)Cl (centres undefined),"inconclusive: 50.1 µM [inhibitor, single point]"
13,O=C(CC1N=C2c3ccccc3N=C(SCc3ccccc3Cl)N2C1=O)NC1CCCCC1 (centres undefined),inactive
14,COc1ccc(Cl)cc1-n1c(CCC(=O)O)ccc1-c1ccc(C)cc1,"inconclusive: 5.62 µM [inhibitor, partial curve]"
15,CC(=O)c1cccc(NC(=S)N2CCN(S(=O)(=O)c3ccccc3)CC2)c1,"inconclusive: 20 µM [inhibitor, partial curve]"
16,CN(C)S(=O)(=O)c1ccc(-c2csc(N/N=C/c3ccc(O)cc3)n2)cc1,"inconclusive: 20 µM [inhibitor, partial curve, poor fit]"
17,COc1ccc(-c2noc(-c3ccccc3C(=O)NCc3ccco3)n2)cc1OC,inactive
18,CCn1c(=O)c2ccccc2n(Cc2ccccc2C)c1=O,"inconclusive: 25.1 µM [inhibitor, partial curve]"
19,COC(=O)C1=C(C)N(Cc2ccccc2)C(=NCc2cccc(C(F)(F)F)c2)N[C@H]1c1cccc(C(F)(F)F)c1,"inconclusive: 3.98 µM [inhibitor, full curve, poor fit]"
20,CC(C)Cn1c(SCc2cccc(F)c2)nc2ccsc2c1=O,inactive
21,Cc1ccc(Cn2ncc3c(N4CCN(C)CC4)ncnc32)cc1,"inconclusive: 35.5 µM [inhibitor, single point]"
22,CCOC(=O)c1sc(N)c(C#N)c1CSc1nnc(C2CCCCC2)n1N,"inconclusive: 50.1 µM [inhibitor, single point]"

row,SMILES,Potency
1,CC(NC(=O)c1c(O)nc2ccccn2c1=O)c1ccccc1 (centres undefined),inactive
2,O=C(NCCc1ccccc1)c1ccc2nc(-c3ccco3)c(-c3ccco3)nc2c1,"inconclusive: 35.5 µM [inhibitor, partial curve]"
3,O=C(Nc1ccc(Br)c(Cl)c1)C1CC1,"inconclusive: 31.6 µM [inhibitor, partial curve]"
4,O=C1OCc2cc(NC(=O)C34CC5CC(CC(C5)C3)C4)ccc21,"inconclusive: 44.7 µM [inhibitor, partial curve]"
5,Cc1ccc(NS(=O)(=O)c2cc(NC(=O)c3ccc4c(c3)NC(=O)CS4)ccc2Cl)c(C)c1,"inconclusive: 11.2 µM [inhibitor, partial curve]"
6,Cn1ccnc1SCC(=O)Nc1ccc2c(c1)OCCO2,"inconclusive: 3.98 µM [inhibitor, full curve, poor fit]"
7,CC(NC(=O)OCc1ccccc1)C(=O)OCN1C(=O)c2ccccc2C1=O (centres undefined),"inconclusive: 44.7 µM [inhibitor, single point]"
8,CCOc1ccc2nc(N(CCCN(C)C)C(=O)c3ccc4c(c3)CCCC4)sc2c1,"inconclusive: 17.8 µM [inhibitor, partial curve]"
9,Cc1ccc(NC(=O)CSc2nc(-c3ccco3)nc3cc(=O)[nH]n23)c(Cl)c1,inactive
10,CCN(CC)CCC(=O)N1c2ccccc2Sc2ccc(NC(=O)OC)cc21,inactive
11,CCOc1ccccc1NC(=S)N1CCC(NC(=O)C(C)(C)C)CC1,inactive
12,CCCCCCN(C(=O)CCCCCN1C(=O)NC(C2CC2)C(C(=O)OCc2ccccc2)=C1C)C(C(=O)NCCCC)c1ccc(OCC(=O)OC)c(C(=O)OC)c1 (centres undefined),"inconclusive: 7.94 µM [inhibitor, partial curve]"
13,O=C(Nc1cc(F)ccc1F)N1CCN(c2ccnc3cc(Cl)ccc23)CC1,inactive
14,CCOc1cccc2sc(N(CCN(CC)CC)C(=O)c3ccc(S(=O)(=O)N4CCCC4)cc3)nc12,"inconclusive: 35.5 µM [inhibitor, single point]"
15,COc1ccc(OCC(=O)NC(=S)Nc2ccc(S(=O)(=O)Nc3cc(OC)nc(OC)n3)cc2)cc1,inactive
16,Fc1ccc(-c2nnc3ccc(N4CCc5ccccc5C4)nn23)cc1,"inconclusive: 11.2 µM [inhibitor, partial curve]"
17,CC(=O)c1cccc(NC(=O)C(Cc2ccccc2)NS(=O)(=O)c2ccc(Br)s2)c1 (centres undefined),"inconclusive: 0.794 µM [inhibitor, full curve]"
18,COc1ccc(S(=O)(=O)N(C(=O)c2ccncc2)c2ccc3oc4c(c3c2)CCCC4)cc1,inactive
19,O=C(CCCc1ccccc1)Nc1cccc([N+](=O)[O-])c1,"inconclusive: 25.1 µM [inhibitor, partial curve]"
20,CC1CCCN(C(=O)COc2ccc3c(c2)OCO3)C1 (centres undefined),"inconclusive: 28.2 µM [inhibitor, partial curve]"
